Screen size: about 310,000 compounds; about 2,200 (0.71%) showed an effect of 50% or more. The effect is printed as a negative number. The list shows a part of the results.

human ether-à-go-go-related gene (hERG) potassium channel, sequence (Q12809 whole entry, looked up): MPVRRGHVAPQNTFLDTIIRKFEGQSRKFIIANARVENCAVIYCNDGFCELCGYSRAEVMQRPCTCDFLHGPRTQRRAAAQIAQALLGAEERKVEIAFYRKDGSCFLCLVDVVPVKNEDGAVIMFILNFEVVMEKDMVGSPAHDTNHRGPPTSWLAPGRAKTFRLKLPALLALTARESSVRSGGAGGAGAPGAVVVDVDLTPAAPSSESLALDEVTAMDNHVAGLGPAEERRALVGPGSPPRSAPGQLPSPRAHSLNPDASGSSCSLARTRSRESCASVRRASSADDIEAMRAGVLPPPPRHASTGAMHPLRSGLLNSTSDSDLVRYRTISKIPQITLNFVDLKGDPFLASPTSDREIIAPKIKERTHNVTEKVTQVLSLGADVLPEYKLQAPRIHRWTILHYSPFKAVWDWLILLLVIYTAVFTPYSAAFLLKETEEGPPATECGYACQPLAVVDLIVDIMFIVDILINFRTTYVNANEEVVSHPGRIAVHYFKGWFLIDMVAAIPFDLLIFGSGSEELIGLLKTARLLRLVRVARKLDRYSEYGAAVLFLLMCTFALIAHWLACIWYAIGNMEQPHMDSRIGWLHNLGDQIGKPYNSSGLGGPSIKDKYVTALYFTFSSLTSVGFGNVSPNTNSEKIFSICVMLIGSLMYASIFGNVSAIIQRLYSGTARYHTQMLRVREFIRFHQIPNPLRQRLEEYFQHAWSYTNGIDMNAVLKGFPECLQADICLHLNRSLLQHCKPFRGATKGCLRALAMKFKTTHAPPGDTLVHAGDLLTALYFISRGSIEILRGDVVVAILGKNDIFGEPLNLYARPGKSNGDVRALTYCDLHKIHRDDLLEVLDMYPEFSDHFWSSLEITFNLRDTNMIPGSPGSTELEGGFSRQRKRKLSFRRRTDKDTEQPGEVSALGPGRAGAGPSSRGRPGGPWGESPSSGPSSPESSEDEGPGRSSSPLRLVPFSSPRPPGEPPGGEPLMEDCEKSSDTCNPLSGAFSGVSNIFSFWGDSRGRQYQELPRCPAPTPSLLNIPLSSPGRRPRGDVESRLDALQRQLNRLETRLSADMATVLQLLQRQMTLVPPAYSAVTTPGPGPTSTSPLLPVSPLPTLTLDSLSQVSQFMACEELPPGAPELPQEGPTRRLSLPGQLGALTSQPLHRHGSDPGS

The assay concerns the target human ether-à-go-go-related gene (hERG) potassium channel (human, UniProt Q12809). The experiment in a line: primary screen, population patch clamp on CHO cells stably expressing hERG.
Turning to `COc1ccc(C(=O)Nc2cccnc2)cc1C(=O)Nc1cccnc1`, the “hERG current change (%, negative = inhibition) at 1uM” value amounted to 16%. As for `O=[N+]([O-])c1cc(C(F)(F)F)ccc1NC1CCN(Cc2ccccc2)CC1`, the figure is 3.28%.

For the compound `Cc1cccc(NS(=O)(=O)c2ccc(C(=O)N3CCC3)cc2)c1C`, the “hERG current change (%, negative = inhibition) at 1uM” value turned out to be 10.9%. With `CCOc1ccc(NC(=O)NNC(=O)C(C)Oc2ccccc2OC)cc1` (stereo not drawn) the figure was 1.3%; with `CCCCC(=O)Nc1nc(C)c(-c2csc(Nc3cc(Cl)ccc3OC)n2)s1`, 2.54%.

With `N/C(=N\OC(=O)c1ccc(Br)cc1)c1ccncc1`, the “hERG current change (%, negative = inhibition) at 1uM” value is 16.2%. As for `Cc1ccccc1CNS(=O)(=O)c1c(C)[nH]c(C)c1C(=O)N1CCCCC1`, the figure is -8.49%; as for `CCOC(=O)c1ccc(NC(=O)Oc2cc(C)c(Cl)cc2C(C)C)cc1`, 3.35%.

Turning to `CC(C)c1ccc(O)c(NC(=O)c2ncn[nH]2)c1`, the “hERG current change (%, negative = inhibition) at 1uM” value is 3.21%. Turning to `CC1(C)NC(=O)N(CC(O)COc2ccccc2-c2ccccc2)C1=O` (stereo not drawn), the “hERG current change (%, negative = inhibition) at 1uM” value came to 8.86%.

For `O=C1[C@H]2[C@@H](c3ccc(F)cc3)N3C(=O)N(c4ccc(Br)cc4)C(=O)[C@@]3(Cc3ccccc3)[C@H]2C(=O)N1C1CCCCC1`, the “hERG current change (%, negative = inhibition) at 1uM” value is 12.3%. On to `COc1ccccc1N(C(C)=O)c1nc(C)cc(C)c1C#N`, for which the “hERG current change (%, negative = inhibition) at 1uM” value turned out to be 5.92%. With `CCOC(=O)c1sc(C)c2c(=O)n(CC)nnc12`, the “hERG current change (%, negative = inhibition) at 1uM” value is on record as 4.83%. As for `CCOc1cccc(C2C(C(=O)c3ccc(C)o3)=C(O)C(=O)N2c2nccs2)c1` (stereo not drawn), the figure is 5.32%; as for `CCC(C)c1ccccc1OCCCN(C)Cc1ccccc1` (stereo not drawn), 14.4%.

On to `O=c1cc(N2CCN(c3ccc(F)cc3)CC2)[nH]c(=O)n1Cc1ccc(F)cc1`, for which the “hERG current change (%, negative = inhibition) at 1uM” value amounted to 10.1%. As for `COc1ccc(N2CC(C(=O)N3CCc4ccccc43)CC2=O)cc1` (stereo not drawn), the figure is -7.42%; as for `Cc1ccc(OCC2Cn3c(nc4c3c(=O)n(C)c(=O)n4C)O2)cc1` (stereo not drawn), 7.46%; as for `N#CCOC(=O)c1sccc1-n1cccc1`, -2.11%. With `COC(=O)CNC(=O)c1c(-c2c(Cl)cccc2Cl)noc1C` the figure was -1.45%; with `O=C(O)CC12CC3CC(C1)CC(n1ncc(N4CCC5(CC4)OCCO5)c(Cl)c1=O)(C3)C2`, 8.08%. For the compound `O=[N+]([O-])c1cc(Cc2ccccc2)cc(C=Nc2ccc(N3CCOCC3)cc2)c1O`, the “hERG current change (%, negative = inhibition) at 1uM” value stood at 18.2%. Regarding `CC1CCCN(S(=O)(=O)c2ccc(NC(=O)CNC3CCCC3)cc2)C1` (stereo not drawn), the “hERG current change (%, negative = inhibition) at 1uM” value was found to be 16%.

As for `COc1ccc(S(=O)(=O)NCCCN2CCOCC2)c2ccccc12`, the “hERG current change (%, negative = inhibition) at 1uM” value was 1.27%. With `CCCc1nn(-c2cc(Cl)ccc2OC)c2c1C(=O)CC(C)(C)C2` the figure was 4.21%; with `CC(C)CCN(CCC(C)C)C/C(O)=C(\C#N)c1nc(-c2ccccc2)cs1`, 12%; with `O=C(Nc1ccccc1Cl)NC1(C(=O)N2CCOCC2)CCCCC1`, 17.8%. With `Cc1cccc(-n2c(=O)c3ccccc3n3c(=S)[nH]nc23)c1C`, the “hERG current change (%, negative = inhibition) at 1uM” value stood at 17.3%. As for `COc1ccc(-c2noc(CN3CCCCC3)n2)cc1OC`, the figure is -0.964%; as for `O=C(Nc1cccnc1Oc1ccc(Cl)cc1)c1cccc2ccccc12`, 9.85%. As for `O=C(NCc1ccccc1)C1CCN(C(=O)Cc2ccccc2)CC1`, the figure is 11.9%.

On to `CCOC(=O)c1cnn(-c2nc(C)cc(C)n2)c1N`, for which the “hERG current change (%, negative = inhibition) at 1uM” value is recorded as -3.18%. As to `O=C(CCN1C(=O)C2C3CCC(C3)C2C1=O)OCC(=O)c1cccc([N+](=O)[O-])c1` (stereo not drawn), the “hERG current change (%, negative = inhibition) at 1uM” value is given as 5.89%. With `O=C1COc2ccccc2N1Cc1ccccc1Cl` the figure was 19.2%; with `COc1ccc(C(=O)CN2CCN(c3ccc(F)cc3)CC2)cc1OC`, -4.69%.

Turning to `Cc1nnsc1C(=O)NC1CCCc2c1cnn2-c1ccccc1F` (stereo not drawn), the “hERG current change (%, negative = inhibition) at 1uM” value came to 9.52%. With `CCCCNC(=O)CC(C(=O)N1CCc2ccccc21)n1ccnc1` (stereo not drawn) the figure was -9.37%; with `O=C(NC(=S)Nc1ccc2oc(=O)ccc2c1)c1cc2ccccc2o1`, 10.2%.

Take `COCCNC(=S)N/N=C(\C)c1ccc(O)cc1`: the “hERG current change (%, negative = inhibition) at 1uM” value is 7.8%. Turning to `Cc1ccc(C)c(NC(=S)NCCN2CCOCC2)c1`, the “hERG current change (%, negative = inhibition) at 1uM” value is 6.74%. On to `Cc1ccc(S(=O)(=O)N(C)c2cc(S(=O)(=O)N3CCC(C)CC3)c(C)cc2C)cc1`, for which the “hERG current change (%, negative = inhibition) at 1uM” value was 12.5%. As for `CCC(=O)Nc1cccc(C(=O)Nc2nccs2)c1`, the figure is 8.98%; as for `COc1ccc(N2CCN(Cc3cc(=O)oc4cc(C)c(Cl)c(C)c34)CC2)cc1`, 7.38%. As for `CCn1c(CNC(=O)c2cccc(C)c2)nnc1SCC(=O)NC1CCCCC1C` (stereo not drawn), the figure is 17.8%; as for `O=C(Nc1ccc(S(=O)(=O)N2CCCC2)cc1)Nc1ccc(F)cc1F`, 13.5%; as for `C/C(=N\NC(=O)c1cccc(S(=O)(=O)N2CCCC2)c1)c1ccncc1`, 2.14%.

Turning to `CCn1cc(C(=O)N2CCN(c3cccc(Cl)c3)CC2)c2cc(OC)c(OC)cc2c1=O`, the “hERG current change (%, negative = inhibition) at 1uM” value was -29.9%. With `CCC(Cc1ccccc1)NS(=O)(=O)c1c(C)nc2scc(C)n2c1=O` (stereo not drawn), the “hERG current change (%, negative = inhibition) at 1uM” value was 14.7%.

For the compound `O=C(c1n[nH]c(=O)c2ccccc12)N1CCC2(CC1)OCCO2`, the “hERG current change (%, negative = inhibition) at 1uM” value turned out to be 21.8%. In the case of `CCC(C)(C)NC(=O)CN(Cc1cccs1)C(=O)CCC(=O)Nc1nccs1`, the “hERG current change (%, negative = inhibition) at 1uM” value is on record as -7.3%.

`Cc1cccc(NC(=O)CSc2nc3[nH]ncc3c(=O)n2-c2ccccc2)c1`: the “hERG current change (%, negative = inhibition) at 1uM” value was -0.53%. As for `CCC1CCC(C(=O)NC(C(=O)NCCN2CCOCC2)C(C)C)CC1` (stereo not drawn), the figure is 13%; as for `Oc1ccc(N=Nc2ccc3c(c2)OCCO3)c2ncccc12`, 10.4%. With `CN(C)c1nc(N)c([N+](=O)[O-])c(NCc2ccccc2)n1` the figure was 5.92%; with `O=C(OCC(=O)N1CCc2ccccc2C1)c1ccc(N2CCOCC2)c([N+](=O)[O-])c1`, -0.912%.

Take `Cn1c(Cn2c(=O)sc3ccccc32)nnc1SCC(=O)Nc1ccc2c(c1)OCO2`: the “hERG current change (%, negative = inhibition) at 1uM” value stood at 9.37%. For `Nc1ccc(C(=O)[O-])c(O)c1.O.[Na+]`, the “hERG current change (%, negative = inhibition) at 1uM” value was determined as 15%. Consider `CC(=O)c1cc2c(cc1NS(=O)(=O)c1ccccc1C)OCO2`, for which the “hERG current change (%, negative = inhibition) at 1uM” value stood at 5.78%.

For the compound `CN1CCc2c(c3c(n2C)CCN(C)[C@@H]3c2cccnc2)[C@H]1c1cccnc1.Cl`, the “hERG current change (%, negative = inhibition) at 1uM” value is on record as 23.7%. As for `O=C(OCCCc1cc2ccccc2c(=O)o1)c1ccc(F)cc1`, the figure is 6.43%.

For `COc1ccccc1CN1CCC(n2nccc2NC(=O)CCCc2ccccc2)CC1`, the “hERG current change (%, negative = inhibition) at 1uM” value is -42.7%.

As to `COC(=O)c1cc(NC(=O)c2ccccc2)c(=O)oc1C/C=N\OCc1ccc(Cl)cc1Cl`, the “hERG current change (%, negative = inhibition) at 1uM” value is on record as -0.0974%.

Turning to `CC1CCN(c2ccccc2NC(=O)c2ccc(F)cc2)CC1`, the “hERG current change (%, negative = inhibition) at 1uM” value was 12.2%. On to `O=C(c1ccccc1Br)N1CCN(c2ncccn2)CC1`, for which the “hERG current change (%, negative = inhibition) at 1uM” value was found to be 11.7%. As for `COc1cc2[nH]c(=S)n(CC3CCCO3)c(=O)c2cc1OC` (stereo not drawn), the figure is 4.14%; as for `Cc1ccc(C2(C)NC(=O)N(CC(=O)NNC(=O)c3cc(C)oc3C)C2=O)cc1` (stereo not drawn), 14.4%. As to `Cc1nc2sccc2c(=O)n1-c1cccc(Cl)c1`, the “hERG current change (%, negative = inhibition) at 1uM” value is 6.02%. As to `CCN(CC)CCCSc1nc2ccccc2s1.O=C(O)C(=O)O`, the “hERG current change (%, negative = inhibition) at 1uM” value is -2.99%.

With `CC1Cc2ccccc2N1c1ncnc(N)c1[N+](=O)[O-]` (stereo not drawn), the “hERG current change (%, negative = inhibition) at 1uM” value is 3.69%. With `CC(C)(C)Nc1scc(-c2ccccc2)[n+]1-c1ccccc1.[Br-]`, the “hERG current change (%, negative = inhibition) at 1uM” value is reported as -0.495%. Regarding `CCN1C[C@]2(COC)CC[C@H](O)[C@@]34C5C[C@@H]6[C@@H](OC)C[C@@](O)(C5[C@H]6O)[C@](O)([C@@H](OC)C23)[C@@H]14` (stereo partly drawn), the “hERG current change (%, negative = inhibition) at 1uM” value is 9.78%. With `O=C1Nc2ccccc2C12OCC(COc1ccc(Cl)cc1)O2` (stereo not drawn), the “hERG current change (%, negative = inhibition) at 1uM” value came out at 11%.

As to `CCc1nn(CC(=O)NCCc2ccc(OC)cc2OC)c(=O)c2cc3occc3n12`, the “hERG current change (%, negative = inhibition) at 1uM” value came to 10.4%. Take `COc1ccccc1NC(=O)c1c([N+](=O)[O-])c(C(C)(C)C)nn1C`: the “hERG current change (%, negative = inhibition) at 1uM” value is recorded as -1.17%.

On to `CC(C)(C)c1ccc(NC(=O)NCc2ccco2)cc1`, for which the “hERG current change (%, negative = inhibition) at 1uM” value is -1.05%. As for `COc1ccc2c(c1)[nH]c1c(=O)n(CCN3CCOCC3)cnc12`, the figure is 9.72%; as for `O=C(O)c1ccccc1C(=O)N1CCc2c([nH]c3ccccc23)C1C(F)(F)F` (stereo not drawn), 11.7%; as for `Cc1cc(Nc2ccc([N+](=O)[O-])cc2)nc2ccccc12`, 7.46%. As to `O=C1CCCC/C1=C/Nc1ccc2c(c1)OCO2`, the “hERG current change (%, negative = inhibition) at 1uM” value was 19.9%. As for `CN1CCN(C(=S)Nc2cc([N+](=O)[O-])ccc2Cl)CC1`, the figure is 7.19%; as for `Cc1cc(NC(=O)CCC(=O)N(c2ccccc2)C(C(=O)NC2CCCC2)c2ccccc2)no1` (stereo not drawn), 5.45%. As for `COc1ccc(C2CC(c3ccc(C)o3)=NN2C(C)=O)cc1` (stereo not drawn), the figure is 6.22%; as for `Clc1ccc(-c2cc(COc3ccccc3)on2)cc1`, 13.5%.

`Cc1ccc(C(=O)Nc2ccc3c(c2)OCO3)cc1S(=O)(=O)N1CCCC1`: the “hERG current change (%, negative = inhibition) at 1uM” value turned out to be 5.87%. With `CN(C)S(=O)(=O)c1ccc(N2CCCC2=O)c([N+](=O)[O-])c1` the figure was 0.0262%; with `Cc1ccc(CNC(=O)c2cccc3c2C(=O)c2ccc(N4CCC(C)CC4)cc2S3(=O)=O)cc1`, 14.3%. As for `O=C(Nc1ccccc1N1CCOCC1)c1cccc(NS(=O)(=O)c2ccc(F)c(F)c2)c1`, the figure is 17.9%.
